Assay results as given in PubChem BioAssay (NCI).
Several values for one entry are separate records, joined by “and”; a condition that tells them apart may be missing. Identical values can stand only once.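 Values below derive from 48-hour exposures of cells grown in 96-well plates, with endpoints linearly interpolated between the two concentrations bracketing the appropriate inhibition level. GI50 = concentration required for 50% inhibition of growth. At the TGI there is no net growth.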 Numbered stars: 1 amine (or outer) side, 2 acyl side, 3 side chain; on linkers, the order of the positions; unused ones are H or OH. Bridge positions count the residues as written; N and C are the ends. Square brackets hold non-standard residues; d marks the D form. Peptide text beside a SMILES is read from it. ξ: configuration not given here. X32 = CC[C@H](C)[C@@H](N[*:1])[C@@H](O)CC(=O)O[C@H](C(=O)[C@H](C)C(=O)[*:2])C(C)C; NMeY = CN[C@@H](Cc1ccc(O)cc1)C(=O)O; dNMeL = CN[C@H](CC(C)C)C(=O)O; ξΔPro = O=C(O)C1C=CCN1

Tested on: NCI-H322M lung
Test: inhibition of tumour cell growth, NCI panel, 48 h

Row | SMILES | GI50 | TGI
1 | CC12CC=CCC1CCC1C2CCC2(C)C(c3ccc(=O)oc3)CCC12O (configuration not stated) | 112 nM | 0.694 µM
2 | CN(C)CCCc1c2ccccc2nc2ccc(Cl)cc12 |  | 25.9 µM
3 | CCCCCCCCCCCCCCCCCCNC(=O)OCC(CNS(=O)(=O)CCC[n+]1cccc2ccccc21)COC (configuration not stated) |  | 20.6 µM
4 | COc1c(Sc2ccccc2)cc(Sc2ccccc2)c2cccnc12 |  | > 100 µM
5 | CC(=O)c1cccc(-c2cccc(-c3ccn(CCN4CCOCC4)n3)c2)c1 | > 20000 nM | > 20 µM
6 | COc1cc2c(cc1OC)C(=O)/C(=C/c1ccc(O)cc1)CC2 |  | > 10 µM
7 | O=C(Nc1ccc(Br)cc1)Nc1nn(C(=O)Nc2ccc(Br)cc2)c2ccccc12 | > 100000 nM | > 100 µM
8 | CCN(CC)CCCC(C)Nc1cc(-c2ccccc2)nc2cc(OC)ccc12 (configuration not stated) |  | 21.6 µM
9 | N=c1ccc2nc3c(cc(N)c4ccccc43)oc-2c1 | 223 nM | 0.784 µM
10 | CC(=O)O[C@H]1CCC2[C@@H]3CCC4NC(=O)C(C#N)C[C@]4(C)C3CC[C@@]21C (some centres not stated) |  | > 10 µM
11 | C[C@]12CC[C@H]3[C@@H](CCC4=C(Br)C(=O)C=C[C@@]43O)[C@@H]1CCC2=O |  | > 100 µM
12 | NNS(=O)(=O)c1cc(C(=O)O)cc(C(=O)O)c1 |  | > 100 µM
13 | O=c1cc(-c2ccccn2)[nH]c2cc(F)ccc12 |  | > 100 µM
14 | CNCCNc1nc2ccccc2c2c(=O)c3cc(OC)ccc3sc12 | 1550 nM | 2.91 µM
15 | CC1CN=C(c2ccc(-c3nc(-c4ccc(C5=NCC(C)N5)cc4)nc(N(C)C)n3)cc2)N1 (configuration not stated) |  | 3.94 µM
16 | C/C(=C(/c1ccc(O)cc1)c1ccc(Cl)cc1)c1ccccc1 | 671 nM | 2.06 µM
17 | CN(C)CCNC(=O)c1cc(NC(=O)c2cc(NC(=O)CC/C=C3/[C@@H]4CC[C@H]3N=N4)cn2C)cn1C |  | > 100 µM
18 | CCCCN(CCCC)CCc1c(C)cc(C)c(CCN(CCCC)CCCC)c1O | 3150 nM | > 100 µM
19 | NNC(=O)Cn1ccnn1 |  | > 100 µM
20 | C=CCCCCn1c2ccccc2c2c(C)c3cnccc3c(C)c21 |  | 36.7 µM
21 | CC(C)(Cc1ccccc1)N1C(=O)N1C(C)(C)Cc1ccccc1 |  | > 100 µM

Row | SMILES | GI50 | TGI
22 | COC(=O)C1CC23C=CCN4CC(C2C)C2(c5ccccc5NC12)C43 (configuration not stated) |  | > 100 µM
23 | CC1CN=C(c2ccc(CN3CCC(C4CCN(Cc5ccc(C6=NCC(C)N6)cc5)CC4)CC3)cc2)N1 (configuration not stated) |  | 69.5 µM
24 | COC(=O)C1Cc2c([nH]c3ccccc23)C(c2ccccc2O)N1Cc1ccccc1 (configuration not stated) |  | > 46.4 µM
25 | CCN(CC)C1Oc2cc3c(cc2C(c2cc(OC)c(OC)c(OC)c2)C1C)OCO3 (configuration not stated) |  | > 32 µM
26 | C/C(=N\NC(=S)N1CCN(c2ccccn2)CC1)c1nccs1 |  | 18.5 µM
27 | Clc1nc2c(C#Cc3ccccc3)ncnc2n1C1CCCCO1 (configuration not stated) |  | 30.5 µM
28 | CCC1(OC(=O)CN)C(=O)OCc2c1cc1n(c2=O)Cc2cc3cc4c(cc3nc2-1)OCO4 (configuration not stated) | 122 nM and 117 nM | 46.1 µM and 12.2 µM
29 | CC[C@H](Nc1nc(N)nc(C2CC2)c1C#N)c1nc2cccc(NCc3ccc(C(=O)NO)cc3)c2c(=O)n1-c1ccccc1 | 2550 nM | 18 µM
30 | CCOC(=O)C1=C(Nc2ccc(Cl)c(Cl)c2)OC/C1=N\NC(=O)Cc1ccccc1 |  | > 100 µM
31 | CN1C(=O)C2C=CC1C1CCC2N(C)C1=O (configuration not stated) |  | > 100 µM
32 | CC(=Nc1cc(Cl)cc(Cl)c1)c1ccncc1 |  | 67.6 µM
33 | CS(=O)(=O)NNS(=O)(=O)c1ccc(Cl)cc1 |  | > 100 µM
34 | Nc1cc2[nH]cnc2c(=O)[nH]1 |  | > 300 µM
35 | Clc1ccc(-c2c(C3=NCCN3)nnn2-c2ccccc2)cc1 |  | > 100 µM
36 | COc1cc2ncnc3c2cc1OCCCCCN(C)Cc1ccc(Br)cc1N3 | 125 nM and 138 nM | 22.1 µM and > 10 µM
37 | Nc1nc(N)nc(CC(=O)O)n1 |  | > 100 µM
38 | O=C(O)Cc1ccccc1CCc1ccccc1Cl |  | > 100 µM
39 | NC(=S)N/N=C1\CCCC1C(O)(C(F)(F)Cl)C(F)(F)Cl (configuration not stated) |  | > 10 µM
40 | O=C(N/N=C/c1ccc(Cl)cc1)c1[nH]c2ccc(Cl)cc2c1-c1ccccc1 | 540 nM | > 100 µM
41 | COc1ccc(N2C(=O)C3c4[nH]c5ccccc5c4C4CCCCCCC4C3C2=O)cc1 (configuration not stated) |  | 57 µM
42 | Cn1cc(C2=C(c3cn(C)c4cc(N)ccc34)C(=O)NC2=O)c2ccccc21 | 7150 nM | > 23.5 µM

Row | SMILES | GI50 | TGI
43 | COC(=O)[C@]1(C)C(OC)=CC(=O)C2C1[C@H]1CCC[C@@H]21 (some centres not stated) |  | > 100 µM
44 | O=c1oc2cccnc2n1CCCCN1CCN(c2ccccc2)CC1 |  | > 100 µM
45 | COC(=O)/C=c1/c2ccccc2n2c1c1ccccc1[n+]2C |  | 35.2 µM
46 | COC(=O)[C@](C)(Cc1ccccc1)NC(=O)[C@@H](C)N1[C@@H](c2ccccc2)COC1(C)C |  | > 100 µM
47 | Clc1ccc2ns[s+]c2c1 |  | > 100 µM
48 | CSc1nsc(S/C=C\C(=O)c2ccc(C)cc2)n1 | > 43500 nM | > 59.1 µM
49 | Cc1cc(=O)oc2cc(OC(=O)N(CCCl)CCCl)ccc12 |  | > 100 µM
50 | COc1cc2oc(-c3ccc4c(c3)OCO4)c(OC)c(=O)c2c(O)c1OC |  | > 50 µM
51 | Oc1c(CN2CCCC2)cc(CSCc2ccccc2)c2cccnc12 | 616 nM | 6.43 µM
52 | COc1cc2oc(=O)cc(C)c2c(OC)c1OC(C)=O |  | > 100 µM
53 | CC(C)(C)n1cc(-c2ccnc(NCCCNS(=O)(=O)c3ccc(Br)cc3)c2)c(-c2cccc(O)c2)n1 | 2310 nM | 5.38 µM
54 | COc1cccc(C23CCCC(C2)N(C)CC3OC(=O)c2ccccc2)c1OC (configuration not stated) |  | > 100 µM
55 | CC[C@H](C)[C@H]1NC(=O)[C@@H](NC(=O)[C@@H](CC(C)C)N(C)C(=O)C2C=CCN2)[C@@H](C)OC(=O)[C@H](Cc2ccc(OC)cc2)N(C)C(=O)[C@@H]2CCCN2C(=O)[C@H](CC(C)C)NC(=O)[C@@H](C)C(=O)[C@H](C(C)C)OC(=O)C[C@@H]1O (some centres not stated) (H-[ξΔPro][dNMeL]T[X32]LP[NMeY](Me); ester 3-C) |  | 0.0983 µM
56 | COc1cc2c(c(OC)c1)C(=O)O[C@H](C)CCCC/C=C/C2 |  | > 68.9 µM
57 | COC(=O)[C@]1(C)CCC[C@@]2(C)[C@@H]3C[C@@H]4[C@H]5C[C@@]3(CC[C@@H]21)C[C@@]45C |  | 43 µM
58 | N#C/C(C(=O)Nc1ccccc1)=C(/N)N1CCCCC1 |  | > 100 µM
59 | [N-]=[N+]=CC(=O)COC(=O)c1ccccc1 |  | > 100 µM
60 | Cn1c2ccc(C3=NCCN3)cc2c2cc(C3=NCCN3)ccc21 |  | > 100 µM
61 | CCOC(=O)Nc1nc2cc(OCC)ccc2s1 | > 68300 nM | > 100 µM
62 | COc1ccc(OC)c(C[P+](c2ccccc2)(c2ccccc2)c2ccccc2)c1 |  | > 100 µM
63 | S=P(N1CCCC1)(N1CC1)N1CC1 |  | > 100 µM

Row | SMILES | GI50 | TGI
64 | Cc1cc2nc(-c3c(N)ncc(C#N)c3-c3ccc(Cl)cc3)[nH]c2cc1C | 27700 nM | > 100 µM
65 | Clc1ccc2c(c1)[nH]c1c2nc2sccn21 |  | > 100 µM
66 | O=P(O)(O)C=C=C1CCCCC1 |  | > 100 µM
67 | O=[N+]([O-])c1ccc2c(c1)n1c(N3CCCC3)[n+]3ccccc3c1c1c3cccc[n+]3c(N3CCCC3)n21 |  | > 100 µM
68 | COc1cc(C)cc2c(-c3c(O)cc(O)c4c3C[C@H](C)N[C@H]4C)cc(-c3cc(-c4c(O)cc(O)c5c4C[C@H](C)N[C@H]5C)c4cc(C)cc(OC)c4c3O)c(O)c12 |  | > 100 µM
69 | O=[N+]([O-])c1ccc2nc(/C=C(\O)c3ccc(Cl)cc3)c(/C=C(\O)c3ccc(Cl)cc3)nc2c1 |  | > 100 µM
70 | COC(=O)[C@@]1(C)CCC[C@]2(C(=O)O)C3Cc4occc4[C@H](C)[C@@H]3CCC21 (some centres not stated) |  | > 100 µM
71 | CCOC(=O)c1c(-c2ccccc2)c(C(OC(c2ccccc2)c2c(-c3ccccc3)c(C(=O)OCC)n3ccccc23)c2ccccc2)c2ccccn12 (configuration not stated) |  | > 100 µM
72 | Cc1c(Cl)cccc1NC(=O)/C(Cl)=C(\Cl)C(=O)O |  | > 100 µM
73 | COc1ccccc1NC(=S)N/N=C/c1ccccn1 |  | > 31.6 µM
74 | O=C(O)COc1cc(-c2ccccc2)nc2ccccc12 |  | > 100 µM
75 | Cc1ccc(/C=C2/NC(=S)SC2=O)cc1 |  | > 100 µM
76 | COc1cc2cc(C(=O)N3CC(CCl)c4c3cc(NC(=O)C(C)Nc3c([N+](=O)[O-])cc(C(=O)NCCN(C)C)cc3[N+](=O)[O-])c3ccccc43)[nH]c2c(OC)c1OC (configuration not stated) |  | 0.634 µM
77 | COc1cc(/C=C2\CC3C4CC=C5C[C@@H](O)CC[C@]5(C)C4CC[C@]3(C)C2=O)ccc1OCCCn1ccnc1 (some centres not stated) | 24400 nM | 50.8 µM
78 | COc1ccc2ccccc2c1CN1CCOCCOCCN(Cc2c(OC)ccc3ccccc23)CCOCCOCC1 |  | > 100 µM
79 | Cc1cccc(N=C2NC(=O)C(CC(=O)Nc3ccc(C)cc3C)S2)c1 (configuration not stated) |  | > 100 µM
80 | N#Cc1c(C[n+]2ccccc2)c2ccccc2oc1=O |  | > 100 µM
81 | CC(C#N)N(CCc1ccccc1)C(=O)c1ccccc1 (configuration not stated) |  | > 100 µM
82 | COC(=O)c1ccc(C(=O)OC)c2nc3cc(C)ccc3nc12 |  | > 100 µM
83 | CCN(CC)CCOc1c(OC)c(Br)cc2c(C)c(C(=O)OC)oc12 | 6190 nM | 12.4 µM
